# Experimental data from the supplement of paper PMC8728848.
# The other results are listed elsewhere or left out.
# B1: Ecp6 (Cladosporium fulvum), B3VBK9 (protein)
# chain: MQSMILFAAALMGAAVNGFVLPRTDDPDCETKATDCGSTSNIKYTVVKGDTLTSIAKKFKSGICNIVSVNKLANPNLIELGATLIIPENCSNPDNKSCVSTPAEPTETCVPGLPGSYTIVSGDTLTNISQDFNITLDSLIAANTQIENPDAIDVGQIITVPVCPSSQCEAVGTYNIVAGDLFVDLAATYHTTIGQIKALNNNVNPSKLKVGQQIILPQDCKNVTTAVA
# Columns and labels:
# Assay in all cases: glycan array binding signal (z-score within array); higher = stronger binding
# Conditions in all cases: glycan notation: IUPAC condensed, linker removed
# [1] = target: Gal(b1-4)GlcNAc(a1-6)Gal(b1-4)GlcNAc
# Summary of the method: (§1)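 From the Consortium for Functional Glycomics database, 3228 arrays were curated, keeping only those whose protein sequence was available. Binding is given as a within-array Z-score averaged across arrays sharing a protein sequence and across linkers. Negative Z-scores can be read as non-binding.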
# [2] = target: Gal(b1-4)GlcNAc(b1-2)Man(a1-3)Man(b1-4)GlcNAc(b1-4)GlcNAc
# Summary of the method: as §1
# [3] = target: Gal(b1-4)GlcNAc(b1-2)Man(a1-3)[Gal(b1-4)GlcNAc(b1-2)Man(a1-6)]Man(b1-4)GlcNAc(b1-4)GlcNAc
# Summary of the method: as §1
# [4] = target: Gal(b1-4)GlcNAc(b1-2)Man(a1-3)[Gal(b1-4)GlcNAc(b1-2)Man(a1-6)]Man(b1-4)GlcNAc(b1-4)[Fuc(a1-6)]GlcNAc
# Summary of the method: as §1
# [5] = target: Gal(b1-4)GlcNAc(b1-2)Man(a1-3)[GlcNAc(b1-2)Man(a1-6)]Man(b1-4)GlcNAc(b1-4)GlcNAc
# Summary of the method: as §1
# [6] = target: Gal(b1-4)GlcNAc(b1-2)Man(a1-3)[Man(a1-6)]Man(b1-4)GlcNAc(b1-4)GlcNAc
# Summary of the method: as §1
# [7] = target: Gal(b1-4)GlcNAc(b1-2)Man(a1-6)Man(b1-4)GlcNAc(b1-4)GlcNAc
# Summary of the method: as §1
# [8] = target: Gal(b1-4)GlcNAc(b1-2)Man(a1-6)[GlcNAc(b1-2)Man(a1-3)]Man(b1-4)GlcNAc(b1-4)GlcNAc
# Summary of the method: as §1
# [9] = target: Gal(b1-4)GlcNAc(b1-2)Man(a1-6)[Man(a1-3)]Man(b1-4)GlcNAc(b1-4)GlcNAc
# Summary of the method: as §1
# [10] = target: Gal(b1-4)GlcNAc(b1-2)[Gal(b1-4)GlcNAc(b1-4)]Man(a1-3)[Gal(b1-4)GlcNAc(b1-2)Man(a1-6)]Man(b1-4)GlcNAc(b1-4)GlcNAc
# Summary of the method: as §1
# [11] = target: Gal(b1-4)GlcNAc(b1-2)[Gal(b1-4)GlcNAc(b1-4)]Man(a1-3)[Gal(b1-4)GlcNAc(b1-2)[Gal(b1-4)GlcNAc(b1-6)]Man(a1-6)]Man(b1-4)GlcNAc(b1-4)GlcNAc
# Summary of the method: as §1
# [12] = target: Gal(b1-4)GlcNAc(b1-3)Gal(b1-3)GlcNAc
# Summary of the method: as §1
# [13] = target: Gal(b1-4)GlcNAc(b1-3)Gal(b1-4)Glc
# Summary of the method: as §1
# [14] = target: Gal(b1-4)GlcNAc(b1-3)Gal(b1-4)GlcNAc
# Summary of the method: as §1
# [15] = target: Gal(b1-4)GlcNAc(b1-3)Gal(b1-4)GlcNAc(b1-3)Gal(b1-4)GlcNAc
# Summary of the method: as §1
# [16] = target: Gal(b1-4)GlcNAc(b1-3)Gal(b1-4)[Fuc(a1-3)]GlcNAc(b1-3)Gal(b1-4)[Fuc(a1-3)]GlcNAc
# Summary of the method: as §1
# [17] = target: Gal(b1-4)GlcNAc(b1-3)GalNAc
# Summary of the method: as §1
# [18] = target: Gal(b1-4)GlcNAc(b1-3)[Gal(b1-4)GlcNAc(b1-6)]Gal(b1-4)GlcNAc
# Summary of the method: as §1
# [19] = target: Gal(b1-4)GlcNAc(b1-3)[Gal(b1-4)GlcNAc(b1-6)]GalNAc
# Summary of the method: as §1
# [20] = target: Gal(b1-4)GlcNAc(b1-3)[GlcNAc(b1-6)]Gal(b1-4)GlcNAc
# Summary of the method: as §1
# [21] = target: Gal(b1-4)GlcNAc(b1-6)Gal(b1-4)GlcNAc
# Summary of the method: as §1
# [22] = target: Gal(b1-4)GlcNAc(b1-6)GalNAc
# Summary of the method: as §1
# [23] = target: Gal(b1-4)GlcNAc(b1-6)[Gal(b1-3)]GalNAc
# Summary of the method: as §1
# Gal3S(b1-3)GalNAc = target: Gal3S(b1-3)GalNAc
# Summary of the method: as §1
# Gal3S(b1-3)GlcNAc = target: Gal3S(b1-3)GlcNAc
# Summary of the method: as §1
# [24] = target: Gal3S(b1-3)[Fuc(a1-4)]GlcNAc
# Summary of the method: as §1
# Gal3S(b1-4)Glc = target: Gal3S(b1-4)Glc
# Summary of the method: as §1
# Gal3S(b1-4)Glc6S = target: Gal3S(b1-4)Glc6S
# Summary of the method: as §1
# Gal3S(b1-4)GlcNAc = target: Gal3S(b1-4)GlcNAc
# Summary of the method: as §1
# Gal3S(b1-4)GlcNAc6S = target: Gal3S(b1-4)GlcNAc6S
# Summary of the method: as §1
# [25] = target: Gal3S(b1-4)[Fuc(a1-3)]Glc
# Summary of the method: as §1
# [26] = target: Gal3S(b1-4)[Fuc(a1-3)]Glc6S
# Summary of the method: as §1
# Gal3S4S(b1-4)GlcNAc = target: Gal3S4S(b1-4)GlcNAc
# Summary of the method: as §1
# Gal3S6S(b1-4)GlcNAc = target: Gal3S6S(b1-4)GlcNAc
# Summary of the method: as §1
# Gal3S6S(b1-4)GlcNAc6S = target: Gal3S6S(b1-4)GlcNAc6S
# Summary of the method: as §1
# Gal4S(b1-4)GlcNAc = target: Gal4S(b1-4)GlcNAc
# Summary of the method: as §1
# Gal4S6S(b1-4)GlcNAc = target: Gal4S6S(b1-4)GlcNAc
# Summary of the method: as §1
# Gal6S(b1-4)Glc = target: Gal6S(b1-4)Glc
# Summary of the method: as §1
# Gal6S(b1-4)Glc6S = target: Gal6S(b1-4)Glc6S
# Summary of the method: as §1
# Gal6S(b1-4)GlcNAc = target: Gal6S(b1-4)GlcNAc
# Summary of the method: as §1
# Gal6S(b1-4)GlcNAc6S = target: Gal6S(b1-4)GlcNAc6S
# Summary of the method: as §1
# GalNAc(a1-3)Gal = target: GalNAc(a1-3)Gal
# Summary of the method: as §1
# GalNAc(a1-3)GalNAc = target: GalNAc(a1-3)GalNAc
# Summary of the method: as §1
# [27] = target: GalNAc(a1-3)GalNAc(a1-3)Gal(a1-4)Gal(b1-4)GlcNAc
# Summary of the method: as §1
# GalNAc(b1-3)Gal = target: GalNAc(b1-3)Gal
# Summary of the method: as §1
binder,measurement,setting,value
B1,glycan array binding signal (z-score),[1],-0.109
same,glycan array binding signal (z-score),[2],-0.095
same,glycan array binding signal (z-score),[3],-0.084
same,glycan array binding signal (z-score),[4],-0.1
same,glycan array binding signal (z-score),[5],-0.092
same,glycan array binding signal (z-score),[6],-0.097
same,glycan array binding signal (z-score),[7],-0.111
same,glycan array binding signal (z-score),[8],-0.106
same,glycan array binding signal (z-score),[9],-0.103
same,glycan array binding signal (z-score),[10],-0.087
same,glycan array binding signal (z-score),[11],-0.107
same,glycan array binding signal (z-score),[12],-0.094
same,glycan array binding signal (z-score),[13],-0.084
same,glycan array binding signal (z-score),[14],-0.083
same,glycan array binding signal (z-score),[15],-0.085
same,glycan array binding signal (z-score),[16],-0.036
same,glycan array binding signal (z-score),[17],-0.084
same,glycan array binding signal (z-score),[18],-0.106
same,glycan array binding signal (z-score),[19],-0.091
same,glycan array binding signal (z-score),[20],-0.096
same,glycan array binding signal (z-score),[21],-0.106
same,glycan array binding signal (z-score),[22],-0.094
same,glycan array binding signal (z-score),[23],-0.077
same,glycan array binding signal (z-score),Gal3S(b1-3)GalNAc,-0.091
same,glycan array binding signal (z-score),Gal3S(b1-3)GlcNAc,-0.109
same,glycan array binding signal (z-score),[24],-0.074
same,glycan array binding signal (z-score),Gal3S(b1-4)Glc,-0.098
same,glycan array binding signal (z-score),Gal3S(b1-4)Glc6S,-0.08
same,glycan array binding signal (z-score),Gal3S(b1-4)GlcNAc,-0.073
same,glycan array binding signal (z-score),Gal3S(b1-4)GlcNAc6S,-0.093
same,glycan array binding signal (z-score),[25],-0.084
same,glycan array binding signal (z-score),[26],-0.084
same,glycan array binding signal (z-score),Gal3S4S(b1-4)GlcNAc,-0.078
same,glycan array binding signal (z-score),Gal3S6S(b1-4)GlcNAc,-0.083
same,glycan array binding signal (z-score),Gal3S6S(b1-4)GlcNAc6S,-0.088
same,glycan array binding signal (z-score),Gal4S(b1-4)GlcNAc,-0.101
same,glycan array binding signal (z-score),Gal4S6S(b1-4)GlcNAc,-0.085
same,glycan array binding signal (z-score),Gal6S(b1-4)Glc,-0.073
same,glycan array binding signal (z-score),Gal6S(b1-4)Glc6S,-0.092
same,glycan array binding signal (z-score),Gal6S(b1-4)GlcNAc,-0.098
same,glycan array binding signal (z-score),Gal6S(b1-4)GlcNAc6S,-0.077
same,glycan array binding signal (z-score),GalNAc(a1-3)Gal,-0.096
same,glycan array binding signal (z-score),GalNAc(a1-3)GalNAc,-0.076
same,glycan array binding signal (z-score),[27],-0.091
same,glycan array binding signal (z-score),GalNAc(b1-3)Gal,-0.116
